From PMC4336329 (PLoS ONE, 2015)
In all, about 310,000 compounds went through this assay and about 14,000 (4.5%) showed an effect of 50% or more. Effects have a minus sign here. This is one part of the list.

target: human ether-à-go-go-related gene (hERG) potassium channel (human, UniProt Q12809); test: primary screen, population patch clamp on CHO cells stably expressing hERG
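Further: peak tail current of the secondary pulse compared with the same well before compound.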

Sequence of human ether-à-go-go-related gene (hERG) potassium channel (Q12809 whole entry, looked up): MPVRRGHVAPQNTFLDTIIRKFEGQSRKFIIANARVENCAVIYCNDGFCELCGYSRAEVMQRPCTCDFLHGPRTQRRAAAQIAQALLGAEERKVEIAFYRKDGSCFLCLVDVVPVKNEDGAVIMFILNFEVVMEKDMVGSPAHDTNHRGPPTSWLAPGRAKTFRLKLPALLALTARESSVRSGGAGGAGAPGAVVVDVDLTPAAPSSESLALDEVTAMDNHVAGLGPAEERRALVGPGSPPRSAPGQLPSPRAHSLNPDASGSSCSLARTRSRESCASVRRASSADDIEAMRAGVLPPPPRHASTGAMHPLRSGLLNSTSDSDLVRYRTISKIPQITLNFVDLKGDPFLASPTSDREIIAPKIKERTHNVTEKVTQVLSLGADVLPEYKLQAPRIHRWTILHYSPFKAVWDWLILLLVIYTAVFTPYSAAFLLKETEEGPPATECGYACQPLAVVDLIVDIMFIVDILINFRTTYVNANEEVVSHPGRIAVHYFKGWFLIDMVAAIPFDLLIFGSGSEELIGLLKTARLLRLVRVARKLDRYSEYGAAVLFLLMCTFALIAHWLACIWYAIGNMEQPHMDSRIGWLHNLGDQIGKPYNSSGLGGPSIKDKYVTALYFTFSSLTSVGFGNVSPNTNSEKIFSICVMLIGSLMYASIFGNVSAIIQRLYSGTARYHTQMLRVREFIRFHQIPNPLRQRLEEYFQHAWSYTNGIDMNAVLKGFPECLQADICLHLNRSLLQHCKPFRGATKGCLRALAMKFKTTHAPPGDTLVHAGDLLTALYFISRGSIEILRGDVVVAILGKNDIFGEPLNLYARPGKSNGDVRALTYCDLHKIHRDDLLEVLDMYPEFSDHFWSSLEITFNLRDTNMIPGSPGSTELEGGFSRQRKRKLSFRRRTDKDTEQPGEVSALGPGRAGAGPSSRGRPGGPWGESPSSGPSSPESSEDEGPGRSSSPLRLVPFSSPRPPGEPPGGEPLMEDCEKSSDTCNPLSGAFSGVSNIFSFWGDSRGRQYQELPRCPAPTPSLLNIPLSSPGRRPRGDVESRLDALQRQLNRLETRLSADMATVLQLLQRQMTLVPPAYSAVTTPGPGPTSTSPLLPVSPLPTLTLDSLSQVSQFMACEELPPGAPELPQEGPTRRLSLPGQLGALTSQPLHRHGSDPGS

Compound	hERG current change (%, negative = inhibition) at 10uM
O=C(N1CCN(Cc2ccc3c(c2)OCO3)CC1)C12CC3CC(CC(C3)C1)C2	-25.1%
COc1ccc(NC(=O)CSc2nnc(-c3ccco3)n2C)cc1	-11.2%
Cc1sc(NC(=O)CN2CCCC2)nc1-c1ccc2c(c1)CCN2C(=O)c1ccc(F)cc1	17.9%
CCN(CC(=O)Nc1ccc(OC)cc1)CC(=O)Nc1ccc2c(c1)OCO2	-34.9%
O=C(NCc1ccc(F)cc1)C1CCN(S(=O)(=O)N2CCOCC2)CC1	-3.23%
O=C(COc1ccc(N2C(=O)c3ccccc3C2=O)cc1)c1ccccc1	19.4%
O=P(O)(O)C(O)C(F)(F)C(F)(F)C(F)(F)C(F)F (stereo not shown)	19.8%
CC(C)(ONC(=O)Nc1ccccc1Cl)C(=O)O	5.17%
O=C(CCc1ccccc1)Nc1ncc([N+](=O)[O-])s1	2.96%
COC(=O)c1ccc(Oc2ccc3nncn3n2)cc1	-9.07%
CC(=O)c1cccc(CN2CCN(Cc3ccc(C)cc3)C(CCO)C2)c1 (stereo not shown)	-69%
COCCN1Cc2cccc(C(=O)Nc3ccc(C)c(C)c3)c2C1=O	-45.3%
O=C(COC(=O)/C=C/c1ccco1)NCc1ccc2c(c1)OCO2	18.3%
Br.CCn1c(=N)n(Cc2ccccc2F)c2ccccc21	-37.5%
Cc1ccsc1C1C(C(=O)O)c2ccccc2C(=O)N1C (stereo not shown)	18.5%
Cc1noc(C)c1C(=O)N1CCN(S(=O)(=O)c2ccc(F)cc2)CC1	11.9%
COc1cccc(C(=O)Nc2cc(OC)ccc2NC(=O)c2ccco2)c1	-1.38%
CCOC(=O)c1cccc(NC(=O)C2CCCN(S(=O)(=O)c3c(C)n[nH]c3C)C2)c1 (stereo not shown)	13.3%
Cc1ccccc1OCC(O)Cn1c(NCc2ccccc2)nc2c1c(=O)[nH]c(=O)n2C (stereo not shown)	-3.37%
Cl.OCCN1CCN(CC(O)COCc2ccc3c(c2)OCO3)CC1 (stereo not shown)	-1.01%

Compound	hERG current change (%, negative = inhibition) at 10uM
Cn1cccc1CC(=O)N/N=C/c1ccco1	14.5%
CC(C)CC(=O)Nc1nnc(CSCc2ccc(F)cc2)s1	-2.3%
CC(=O)Nc1nonc1-c1nc2ccccc2n1C	10.7%
CCOC(=O)c1c(N=CN(C)C)c2cc([N+](=O)[O-])cnc2n1C	-6.08%
COc1ccc(NS(=O)(=O)c2ccc(C)c(C(=O)NNC(=O)c3ccccc3O)c2)cc1	-2.24%
c1ccc(NC(c2ccccc2)c2ccncc2)cc1 (stereo not shown)	-2.12%
CCOC(=O)C1=C(COC(=O)/C=C/c2ccc(SC)cc2)NC(=O)NC1C (stereo not shown)	8.74%
O=C(CN1CCN(c2ccc([N+](=O)[O-])cc2Cl)CC1)N1CCOCC1	-45.2%
CC(OC(=O)c1ccccc1NCCO)C(=O)Nc1ccnn1C(C)C (stereo not shown)	6.22%
O=C(COc1ccc(C(=S)N2CCC(Cc3ccccc3)CC2)cc1)N1CCOCC1	2.33%
O=C(c1cccs1)c1coc2ccc(O)cc12	4.53%
CCOC(=O)N1CCN(C(=O)CN(C)S(=O)(=O)c2ccc(OC)c(OC)c2)CC1	2.77%
COCCn1c(C)cc(C2=NNC(=NC(C)(C)C)SC2)c1C	11.6%
Cc1cc(NC(=O)COC(=O)c2ccc(S(=O)(=O)N3CCCc4ccccc43)cc2)no1	3.93%
CCCCn1c(=O)[nH]c(=O)c2c1nc(-c1cc(Br)c(OCC)c(OC)c1)n2C	1.82%
COc1ccc(-c2cn3c(C)c(C(=O)NC(C)C)sc3n2)cc1	6.65%
COc1cc2sc(NC(=O)c3ccco3)nc2cc1Cl	11.6%
CCC(=O)N(Cc1cc2c(C)cc(C)cc2[nH]c1=O)C1CCCCC1	-29.1%
Clc1ccc(Nc2nc(-c3ccncc3)cs2)cc1	-0.224%
CCn1c(=O)n(CC(=O)NC2CCCC(C)C2C)c(=O)c2ccccc21 (stereo not shown)	-4.78%

Compound	hERG current change (%, negative = inhibition) at 10uM
O=C(COC(=O)CNC(=O)C1CCCCC1)Nc1ccccc1Cl	23.3%
CCOC(=O)Cn1c(=NC(=O)C(C)C)sc2c(C)cc(C)cc21	-6.57%
Cc1ccc(-c2nnc(NC3CCCC3)s2)cc1	-22.6%
CCOC(=O)/C(C#N)=N/Nc1ccccc1C(=O)O	22.6%
O=C(CC1Sc2ncnn2C1=O)Nc1ccccc1 (stereo not shown)	-1.91%
O=C(Nc1ccccc1N1CCOCC1)c1cccnc1Cl	-0.807%
CC(OC(=O)Cc1ccccc1[N+](=O)[O-])C(=O)Nc1ccc(Cl)cn1 (stereo not shown)	-34.1%
Cc1cccc(NC(=O)COc2ccccc2C)n1	7.83%
CCCCc1nc(SCC(=O)N2CCCC2)c2c(=O)n(C)c(=O)n(C)c2n1	-23%
COc1ccc(C2=NC(=O)NC2c2ccc(OC)cc2)cc1 (stereo not shown)	-29.4%
CCOC(=O)NCc1ccccc1	-6.72%
COc1ccc(C2CCN(CC(=O)N(C)C)CC2O)cc1 (stereo not shown)	33.3%
COC(=O)c1ccccc1NC1=C/C(=N\S(=O)(=O)c2ccc(C(=O)O)cc2)c2ccccc2C1=O	-15.5%
O=C(CC1OCC2CCCN2C1=O)Nc1ccc([N+](=O)[O-])cc1 (stereo not shown)	-7.77%
C/C(=N/NC(=O)c1ccc(C)s1)c1cccc(NC(=O)COc2ccc(Cl)cc2C)c1	3.47%
CCCN(C#N)c1nc(NCC)nc(NC(C)C)n1	-10.2%
COc1ccccc1N(C)S(=O)(=O)c1ccc(C(=O)N2CCC(C(N)=O)CC2)cc1	6.81%
CC1=C(C(=O)Nc2ccccn2)C(c2ccc(Br)cc2)n2ncnc2N1 (stereo not shown)	-22.5%
